Results reported in the RNAGym collection of RNA variant scans (doi:10.1093/nar/gkz1192).
The source gives no read counts; variants with many changes may rest on few reads.

B1: CPEB3 Ribozyme (parent)
chain: UAACAGGGGGCCACAGCAGAAGCGUUCACGUCGCAGCCCCUGUCAGAUUCUGGUGAAUCUGCGAAUUCUGCUGUAUAUCUC

Variants of: B1
Assay: self-cleavage, relative activity (ratio to wild type); higher = more cleavage; in vitro, sequencing
How it was run: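 Libraries of CPEB3 self-cleaving ribozyme mutants came from rounds of error-prone PCR and carried barcodes, which DNA sequencing matched to variants. In vitro transcription used T7 RNA polymerase at 37°C for 5 hours, with a further 15 min in DNase I before EDTA stopped the reaction; the ribozymes cleaved during both steps. The RNA was reverse transcribed with template switching and sequenced on Illumina. Relative activity is the cleaved/total read fraction of a variant divided by that of the unmutated ribozyme, averaged over three batches with at least 5 reads.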

Question: Which self-cleavage does the source give for UAACAGGGGGCCGCAGCAGGUGCGUUCGCGUCGCAGCCCCUGUCCGAUUCUGGUGAAUCUGCGAAUUCUGCUGUAUAUCUC here?
Answer: 0.34

Question: For UAACAGGGGGCCGCAGCAGGGGCGUUCACGUCGCAGCCCCUGUCAGAUUCUGGUGAAUCUGCGAAUUCUGCAGUAUAUCUC, which self-cleavage is on record?
Answer: 0.08

Question: For UAACAGGGGGCCGCAGCAGGAGCGUUCACGACGCAGCCCCCGUCAGAUUCAGGUGAAUCUGCGAAUUCUGCUGUAUAUCUC, which self-cleavage is on record?
Answer: 0.26

Question: With UAACAGGGGGCCGCAGCUGAAGCGUUCACGUCGCGGCCCCUGUCAGAUUCUGGCGAAUCUGCGAAUUCAGCUGUAUACCUC as the variant, how does the self-cleavage read?
Answer: 1.04

Question: Which self-cleavage does the source give for UAACAGGGGGCCGCAGCAGGAGCGUUCACGUCGCAGCCCCUGUCAGAUUCUGGUGGAUCAGCGAAUUCUGCUGUAUAUCUC here?
Answer: 0.08

Question: With UAACAGGGGGCCGCAGCUGAAGCGUUCACGUCACUGCCCCUGUCAGAUUCUGGUGAAUCUGCGAAUUCUGCUGUAUAUCUC as the variant, how does the self-cleavage read?
Answer: 0.21

Question: With UAACAGGGGGCCGCAGCAGGAGCGUACACGUCGCAGCCCCUGCCAGAUUCUGGUGAAUCUGCGAAUUCUGCUGUAUAUCUC as the variant, how does the self-cleavage read?
Answer: 0.31

Question: For UAACAGGGGGCCGCAGCAGGAGCGUUCACGUCGCAGCCCCCGUCAGGUUCUGGUGAAUCUGCGAAUUCUGCUGUAUAUCUC, which self-cleavage is on record?
Answer: 0.51

Question: Which self-cleavage does the source give for UAACAGGGGGCCGCAGCUGAAGCGUUCACGUCGCAGCCCCUGUCAGAUUCUGGUGUAUCUGCAAAUUCUGCUGUAUAUCUC here?
Answer: 0.3

Question: For UAACAGGGGGCCGCAGCUGAAGCGUUCACGUCGCAGCCCCUGUCGGAUUCUGGUUAAUCUGCGAAUUCUGCUCUAUGUCUC, which self-cleavage is on record?
Answer: 0.09

Question: For UAACAGGGGGCCGCAGCUGAAGCGUUCACGUCGCAGCCCCCGUCAGAUUCUGGUGAAUCAGCUAAUUCUGCUGUAUAUCUC, which self-cleavage is on record?
Answer: 0.25

Question: Which self-cleavage does the source give for UAACAGGGGGCCGCAGCAGGAGCGUUCACGUCGCUGCCCCUGUCAGAUUCAGGUGAAUCUGCGAAUUCUGCUGUAUAUCUC here?
Answer: 0.24

Question: Which self-cleavage does the source give for UAACAGGGGGCCGCAGCAGGAGCGUUCACGUCGCAGCCCCUGUCAAAUUCUGGUGAAUCUGCGAAUUCAGCUGUACAUCUC here?
Answer: 0.14

Question: Which self-cleavage does the source give for UAACAGGGGGCCGCAGCAGGAGCGUCCACGUCGCAGCCCCAGUCAGAUUCAGGUGAAUCUGCUAAUUCAGCUGUAUAUCUC here?
Answer: 0.04

Question: Which self-cleavage does the source give for UAACAGGGGGCCGCAGCGGAAGCGUUCACGGCGCAGCCCCUGUCAGAUUCUGAUGAAUCUGCGAAUUCUGCUGUAUAUCUC here?
Answer: 0.22

Question: Which self-cleavage does the source give for UAACAGGGGGCCGCAGCUGUAGCGUUCACGUCGCAGCCCCUGGCAGUUUCUGGUGAAUCUGCGAAUUCUGCUGUAUAUCUC here?
Answer: 0.07

Question: For UAACAGGGGGCCGCAGCAGGAGCGUUCACGUCGCAGCCCCUGUCAGAUUCUGGUGAAUCUGCGAAUUCUGUUGUAUAUCUC, which self-cleavage is on record?
Answer: 0.12

Question: For UAACAGGGGGCCGCAGCUGAAGCGCUCACGUCGCAGCCCCUGUCAGAUUCUGGUGAAUCUGCGAAUUCUGCUGUAUAUCUC, which self-cleavage is on record?
Answer: 0.28

Question: For UAACAGGGGGCCGCAGCAGGAGCGUUCACGUCCCAGCCCCUGUCAGAUUCUGGUGAAUCUGCGAAUUCUGCUGUAUAUCUC, which self-cleavage is on record?
Answer: 0.18

Question: With UAACAGGGGGCCGCAGCAGGAGCGUACACGUCGCUGCCCCUGUCAGAUUCUGGUGAAUCUGCGAAUUCUGCUGUAUAUCUC as the variant, how does the self-cleavage read?
Answer: 0.16

Question: Which self-cleavage does the source give for UAACAGGGGGCCGCAGCAGGAGCGUUCACGCCGCAGCCCCUGUCAGAUUCCCGUGAAUCUGCGAAUUCUGCUGUAUAUCUC here?
Answer: 0.39

Question: Which self-cleavage does the source give for UAACAGGGGGCCGCAGCGGAAGCGUUCACGUCGCAGCCCCCGUCAGGUUCUGGUGAAUCUGCGGAAUCUGCUGUAUAUCUC here?
Answer: 0.05

Question: With UAACAGGGGGCCGCAGCAGGUGCGUUCACGUCGCAGCCCCUGUCGGAUUCUGGUGAGUCUGCGAAUUCUGCUGUAUAUCAC as the variant, how does the self-cleavage read?
Answer: 0.37

Question: Which self-cleavage does the source give for UAACAGGGGGCCGCAGCAGCAGCGUUCACGUAGCAGCCCCUGUCAGAUUCUGGUGAAUCUGCGAAUUCUGCUGUAUAUCUC here?
Answer: 0.23

Question: Which self-cleavage does the source give for UAACAGGGGGCCGCAGCAGCAGCGUUCACGUCGCGGCCCCUGUCGGAUUCUGGUGAAUCUGCGAAUUCUGCUGUAUAUCUC here?
Answer: 0.04

Question: With UAACAGGGGGCCGCAGCUGAAGCGUUCACUUCGCAGCCCCUGUCAGAUUCUGGUGAAUCUGCGAAUUCUGCUGUAUAUCUC as the variant, how does the self-cleavage read?
Answer: 0.1

Question: For UAACAGGGGGCCGCAGCUGAAGCGUUCACGUCGCAGCCCCUGUCAGAUUCUGGUGAAUCUGUGAAUUCUGCUGUAUAUCUC, which self-cleavage is on record?
Answer: 0.2

Question: With UAACAGGGGGCCGCAGCUGAAGCGUUCACGUCGCAGCCCCUGUCAGAUUCUGGUGAAUCUGCGAACUCUACUGUAUAUCUC as the variant, how does the self-cleavage read?
Answer: 0.12

Question: With UAACAGGGGGCCGCAGCUGAAGCGUUCACGUCGCAGCCCCUGUCAGAUUCUGGUGAAUCUGCGAAUACUGCUGUAUAUCUC as the variant, how does the self-cleavage read?
Answer: 0.17

Question: Which self-cleavage does the source give for UAACAGGGGGCCGCAGCAGGAGCGUUCACGUCGCAGCCCCUGUCAGAUUCUGGUGAAUCUACGAAUUCUGCUGUAUAUCCC here?
Answer: 0.32

Question: For UAACAGGGGGCCGCAGCAGGAGCGUUCACGUCGCAGCCCCUGUCAUAAUCUGGUGAAUCUGCGAAUUCUGCUGUAUAUCUC, which self-cleavage is on record?
Answer: 0.05

Question: For UAACAGGGGGCCGCAGCAGGAGCGUUCACGCCGCAGCCCCUGCCAGAUUCUGGUGAAUCUGCGAAUUCUGCUGUAUAACUC, which self-cleavage is on record?
Answer: 0.45

Question: For UAACAGGGGGCCGCAGCGGAAGCGUUCACGUCGCAGCCCCUGUCAGAUUCAGGUGGAUCUGCGAAUUCUGCCGUAUAUCCC, which self-cleavage is on record?
Answer: 0.11

Question: With UAACAGGGGGCCGCAGCUGAGGCGUCCACGUUGCAGCCCCUGUCAGAUUCUGGUGAAUCUGCGAAUUCUGCUGUAUAUCUC as the variant, how does the self-cleavage read?
Answer: 0.19
